This is an account of results in publication PMC4455778.

The target in one assay is T1, Lig4-GFP (S. pombe) (UniProt O74833).
T1 sequence: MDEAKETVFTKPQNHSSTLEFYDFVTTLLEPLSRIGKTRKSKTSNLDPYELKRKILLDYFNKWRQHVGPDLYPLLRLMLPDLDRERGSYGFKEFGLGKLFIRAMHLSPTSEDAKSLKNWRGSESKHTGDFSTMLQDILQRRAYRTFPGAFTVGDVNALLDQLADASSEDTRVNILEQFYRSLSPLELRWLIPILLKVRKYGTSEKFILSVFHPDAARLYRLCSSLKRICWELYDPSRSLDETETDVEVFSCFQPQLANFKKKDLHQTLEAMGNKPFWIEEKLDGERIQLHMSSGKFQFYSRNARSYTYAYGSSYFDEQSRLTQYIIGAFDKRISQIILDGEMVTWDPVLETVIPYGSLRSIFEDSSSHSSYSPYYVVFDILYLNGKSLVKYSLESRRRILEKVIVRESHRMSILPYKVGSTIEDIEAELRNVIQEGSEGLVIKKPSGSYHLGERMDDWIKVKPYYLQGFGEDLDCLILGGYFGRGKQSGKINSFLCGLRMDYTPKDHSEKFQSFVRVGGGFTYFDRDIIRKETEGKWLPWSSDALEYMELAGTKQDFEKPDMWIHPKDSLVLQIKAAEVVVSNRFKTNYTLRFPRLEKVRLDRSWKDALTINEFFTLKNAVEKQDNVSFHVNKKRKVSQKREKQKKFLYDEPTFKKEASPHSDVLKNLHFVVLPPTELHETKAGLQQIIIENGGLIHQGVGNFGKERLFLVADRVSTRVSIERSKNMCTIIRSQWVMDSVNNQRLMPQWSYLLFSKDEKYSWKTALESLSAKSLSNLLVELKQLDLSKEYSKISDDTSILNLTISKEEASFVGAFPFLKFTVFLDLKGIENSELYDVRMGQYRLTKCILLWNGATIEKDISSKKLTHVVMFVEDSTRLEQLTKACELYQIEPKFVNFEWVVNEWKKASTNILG
Briefly: co-IP; GFP-trap agarose beads precipitate the GFP-tagged protein from lysates of S. pombe cells co-expressing the two proteins from P41nmt1; lysis buffer 50 mM HEPES pH 7.5, 1 mM EDTA, 150 mM NaCl, 10% glycerol, 1 mM DTT, 0.05% NP-40; five washes.

Assay [1] addresses T2, C-terminal fragment of Lig4 (amino acids 660-913) (S. pombe) (UniProt O74833).
T2 sequence: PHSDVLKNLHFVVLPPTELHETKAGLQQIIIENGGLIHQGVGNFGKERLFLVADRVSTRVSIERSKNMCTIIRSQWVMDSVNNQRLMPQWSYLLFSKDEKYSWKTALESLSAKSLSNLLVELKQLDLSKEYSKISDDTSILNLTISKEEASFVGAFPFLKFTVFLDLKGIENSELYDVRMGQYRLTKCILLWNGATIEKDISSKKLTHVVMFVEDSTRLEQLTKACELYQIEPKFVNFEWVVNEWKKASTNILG
The assay is described as follows: two-hybrid; Matchmaker system (Clontech), Lig4 and fragments as bait, Xrc4 as prey, AH109 strain; HIS3 and ADE2 reporters assessed on SD/-Ade/-His/-Leu/-Trp.

Assay [2] deals with T3, Lig4 (two-hybrid bait) (S. pombe) (UniProt O74833).
T3 sequence: T1 sequence
The description is as above.

Assay [3] deals with T4, Lig4 fragment (amino acids 660-830) (S. pombe) (UniProt O74833).
T4 sequence: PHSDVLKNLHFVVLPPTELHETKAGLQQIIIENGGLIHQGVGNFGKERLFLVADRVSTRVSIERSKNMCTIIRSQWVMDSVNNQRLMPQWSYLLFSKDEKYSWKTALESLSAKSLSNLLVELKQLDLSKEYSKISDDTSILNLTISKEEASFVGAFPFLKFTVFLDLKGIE
The description is as above.

The target of assay [4] is T5, Lig4 fragment (amino acids 741-913) (S. pombe) (UniProt O74833).
T5 sequence: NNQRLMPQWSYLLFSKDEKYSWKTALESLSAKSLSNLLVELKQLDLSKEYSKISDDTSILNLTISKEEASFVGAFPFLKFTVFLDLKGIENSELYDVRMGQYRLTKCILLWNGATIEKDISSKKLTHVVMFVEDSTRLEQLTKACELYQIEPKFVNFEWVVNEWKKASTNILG
Described as above.

No constants are given. Whether binding was seen depends on the method and setting. For some assays here: In cells and extracts the contact can be indirect. Some results given as binding are weak or reduced against the parent protein; the word gives no strength. For some assays here: Where a sequence is shown, tags or fusion partners need not be part of it.

B1: Xrc4-mCherry (protein, UniProt Q92361 1-264)
chain: MKFFLSLKDFKGEKFVLRSELDESSAFLCAISPTCRYVLRDEIPWKRLQRNVTSESLTDELIVDLLCGRSESKHTLQLVVLENLCRIYINYVDPFPLRIAWFELEQQALKDHEHFDVLWECSHSIKDLALASMAQQKNELQKLMAYTEQLQEECKSRERKLIMKFADMIKNARNNEDNEDNHHINYEDESDVGTDEQKQQEGVNSSAVSDTDESAVSDEFMQIKEEFPMKALSASPTADASPESAGEDDSHRRSSHESSETVSE
For the molecule B1, in the assay with Lig4-GFP (S. pombe), the binding result was “binds”.

B2: Xrc4 (two-hybrid prey) (protein, UniProt Q92361 1-264)
chain: B1 chain
For B2, the binding result is recorded as “binds” in assay [1], “binds” in assay [2], “no binding” in assay [3] and “binds” in assay [4].
